# The campaign covered roughly 150,000 compounds. About 540 (0.36%) showed an effect of 50% or more. Some of the results follow.
# Test system: Plasmodium falciparum
# Experiment: Primary screen in NF54 nanoGlo assay, in single point, at 2uM, 72h; a lower Z score goes with more inhibition
# Format: functional, Erythrocyte
# Settings: timepoint 72 hour
Compound,% Inhibition,Z score
COc1ccc(Cl)cc1NC(=O)N(C)Cc1nc2cc(C(=O)NC(C)C)ccc2n1C,-15%,1.73
CCCn1ncnc1-c1cccc(C(=O)N(C)C2CCN(C)CC2)c1,-5%,0.56
CC1CC(CC(=O)NCC2(O)CCS(=O)(=O)CC2)CC(C)(C)C1 (stereo not given),-11%,2.24
Cn1ncnc1CN1CCOC[C@@H](C2CCC2)C1,17%,-2.2
N#Cc1nccnc1NC[C@@H](CO)Cc1ccccc1Cl,-13%,1.41
COc1cnc([C@@H]2CCCN2c2nccc(C)n2)[nH]c1=O,-7%,1.38
CN(C)c1ccc(NC2CCC(NC(=O)OC(C)(C)C)CC2)cn1 (stereo not given),5%,-0.66
CCn1cc(CN(Cc2nnc(C)o2)CC(C)C)cn1,1%,-0.29
O=C(NCCc1ccccc1)C(=O)Nc1cccc(N2CCCC2=O)c1,-17%,2.6
CCN(CC)CCOc1c(Cl)cccc1Cl,13%,-1.62
Fc1ccc(-c2nnc(-c3ccc(-n4ccnc4)nc3)o2)cc1,-8%,0.99
COC(=O)c1cc(CNc2nc(C)nc(C)c2F)ccn1,-4%,0.44
OCCn1nc(-c2ccncc2)nc1Cc1ccc(F)c(F)c1F,-7%,1.27
O=C(NCCCCO)Nc1csnc1-c1ccccc1,-11%,1.47
O=C1[C@@H]2CC[C@@H](CN(c3nnc(-c4ccccc4)s3)C2)N1CC1CC1,15%,-1.96
CC(C)CN(CC(=O)N(CCc1ccccc1)Cc1ccco1)C(=O)Cc1ccccc1,5%,-0.46
Cc1nn(-c2ccccc2)c(=O)n1CC(=O)NCCCOc1cccnc1,-9%,1.56
CC(C)NC(=O)N(Cc1ccccc1OS(C)(=O)=O)CC1CC1,-6%,0.8
COc1ccccc1N1C(=O)c2cc(C)nn2C[C@@]1(C)C(=O)NCc1ccc(Cl)cc1,-3%,0.55
Cc1ccc(S(=O)(=O)N2CCC(F)(c3nc(CC(C)C)no3)CC2)cc1F,-5%,1.02
CC(C)n1cc(NC(=O)c2ccc(Cl)cn2)cn1,-13%,2.2
Cc1ccn(CCC(=O)N[C@@H](C)c2c(C)n[nH]c2C)n1,-13%,1.68
Cn1nnc2c[n+](CC(=O)c3ccc4ccccc4c3)cc(Br)c21,-2%,0.18
CC1CCN(C(=O)NCCNC(=O)C(C)(C)C)CC1C (stereo not given),-10%,1.69
CC(O)CN1CCN(C(C)C(=O)N2CCCCCC2)CC1C (stereo not given),-8%,1.22
Nc1ccc(Cc2nc3c(s2)CCCC3)cc1,-4%,0.48
O=C(O)Cn1cc(C=Cc2nc(-c3ccccc3)cs2)nn1,-2%,0.18
CCn1ncc(-c2csc(NC(=O)c3cc(C4CC4)[nH]n3)n2)c1C,1%,-0.12

Compound,% Inhibition,Z score
O=C(Nc1ccon1)c1csc2c1CCCC2,6%,-0.65
Cc1cccc(N2CCN([C@H]3CCC(=O)N(CCCC(C)C)CC3)CC2)c1C,-11%,1.27
Cc1c(Cl)ccc2c(C(=O)N3CCOCC3)cc(-c3ccc4c(c3)OCO4)nc12,-12%,1.71
Cc1cccnc1-c1nc(-c2cccc(-n3c(C)c[nH]c3=O)c2)no1,-7%,0.87
CC[C@]1(CO)CCCN(C(=O)C2CCc3ccccc3CC2)C1,-1%,0.19
CC(C)COc1ncc(C(=O)N2CC(=O)N[C@@H](C)C2)cc1Cl,7%,-1
CCCNS(=O)(=O)c1ccc(C(=O)N2C[C@H]3CC[C@@H](C2)N(C)C3)cc1,-7%,1.2
CCS(=O)(=O)C1CCN(Cc2cn(-c3ccc(F)c(Cl)c3)nn2)CC1,8%,-0.85
CC(C)(C)OC(=O)NC[C@H]1CCN(CCOc2cccc(C#N)c2)C1,-10%,0.91
CC(=O)c1ccc(CNc2cnc3ccccc3n2)nc1C,-7%,0.88
Cc1cc(N2CC[C@@]3(O)CCCC[C@H]3C2)nc(N)n1,-8%,1.39
N#Cc1nccnc1O[C@H]1CCN(C(=O)Cc2c[nH]c3ccccc23)C1,2%,-0.24
C[C@H]1CN(c2nnc(Cc3ccn[nH]3)n2CC(C)(C)C)CCO1,-4%,0.61
Cc1n[nH]c([C@H]2CN(C(=O)OCC(F)(F)F)C[C@@H]2C2CC2)n1,26%,-4.22
CNc1nc(NC[C@H]2CCN(C3CCCCC3)C2)ncc1F,-8%,1.17
CNS(=O)(=O)CCC(=O)N[C@@H](C)Cc1ccc(C)s1,-7%,0.75
O=C(NCCOCCN1C(=O)CCC1=O)c1ccoc1,-7%,1.17
Nc1c(C(=O)NC2CCCC2)sc2ncccc12,-4%,0.62
O=C(C1Cc2ccccc2C1)N1C[C@@H]2NCCO[C@H]2C1,-6%,0.53
O=C(c1cc(-c2ccccc2)[nH]n1)N1CCO[C@H](c2ccccc2)C1,4%,-0.6
O=C1C[C@@H](c2ccc[nH]c2=O)c2c(ccc3nn(-c4ccc(F)cc4)nc23)N1,0%,0.02
COCCN1CCCCC[C@H](O)c2cc(C(=O)N(C)CCCc3c(C)nn(C)c3C)ccc21,-8%,1.47
C[C@@H](c1ccc(Cl)cc1Cl)N(C)CC(N)=O,-9%,0.85
CC(C)[C@H](C)N(Cc1cnc2ncccn12)C1CC1,-8%,1.35
CCNC(=O)C(C)N1C(=O)C2(CCN(CC(C)CC)CC2)Nc2ccccc21 (stereo not given),-1%,0.1
CN(C)c1ccc(NC(=O)C(=O)NCCC(c2ccccc2)c2ccccc2)cc1,0%,-0.01
O=C(CCc1cc(Cl)ccc1Br)NC(CO)CO,-6%,0.72

# From ChEMBL document CHEMBL4888484, “Replenishing the malaria drug discovery pipeline: Screening and hit evaluation of the MMV Hit Generation Library 1 (HGL1) against asexual blood stage Plasmodium falciparum ,using a nano luciferase reporter read-out” (2022)
